The list shows a part of the results.
T1: UNK ZnF1-6 (called full-length) (human, UniProt Q9C0B0 30-357)
T1 sequence: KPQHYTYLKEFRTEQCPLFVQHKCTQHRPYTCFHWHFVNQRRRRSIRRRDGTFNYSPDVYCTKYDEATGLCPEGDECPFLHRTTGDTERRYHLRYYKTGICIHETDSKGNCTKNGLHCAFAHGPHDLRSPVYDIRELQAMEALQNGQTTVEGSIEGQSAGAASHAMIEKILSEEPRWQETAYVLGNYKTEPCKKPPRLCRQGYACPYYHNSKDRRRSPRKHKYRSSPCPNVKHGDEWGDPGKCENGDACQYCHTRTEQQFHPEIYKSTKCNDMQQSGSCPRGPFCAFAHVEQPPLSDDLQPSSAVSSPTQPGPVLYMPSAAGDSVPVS

B1: chr1:156668797:156668898:-|3pUTR|ENSG00000132688|msi1|total|mutant (ssRNA)
RNA: GGGAGUUCUACAGUCCGACGAUCUGACGGCACUCCCAUGUGCUGACUCCCCCCAUCCCUGCCACGCUGUGGCCCUGCCUGGCCCGUCCCUGCCUGAAUAAAGUAAUGCCUCCGCUUCAAAGUCUGGACUCUUCUUUCCCCCACCAACAGAGGAUUGAGCAUCA
B2: chr9:35750248:35750349:+|CDS|ENSG00000107185|msi1|FALSE|unique (ssRNA)
RNA: GGGAGUUCUACAGUCCGACGAUCGGCCCUGGCCUGGGCCAGUGCCCAAAUCCACUGCCAGUUCCAUGCCAGUGAGAGUCGAGUAGCACUGCCUCCUCCUGACUCUAGUCAGCCAGAUGUCCAGCCCGACAGCCAGACUGUCUUCAACAGAGGAUUGAGCAUCA
B3: chr11:69651811:69651939:+|3pUTR|ENSG00000110092|msi1_unk|total|mutant (ssRNA)
RNA: GGGAGUUCUACAGUCCGACGAUCUAAAGCACAGCUGCCGUGGGGUUCCCGGCAUCUCUGUACUUUGCUUGCUCAUAUGCAUGCCGUCACUUUAUAAGUCAUUGUAUGUUAUUAUAUUCCGCCGGCCGAUGUGUAACCUCUUCACAACAGAGGAUUGAGCAUCA
B4: chr1:167421552:167421653:+|3pUTR|ENSG00000143190|unk|FALSE|unique (ssRNA)
RNA: GGGAGUUCUACAGUCCGACGAUCUUUUCUUCUAACCUUAUUCAUUAAGUAGUUCCUUGUUUUGGCCCUUCUACUCUUGGCCUUAGCUAAAAGCAGUAAAUGUGAGUGAAUUUUAUGUUGAUUAUGUCACCUGGAUCUCCUUUCCAACAGAGGAUUGAGCAUCA
B5: chr6:36232219:36232320:+|3pUTR|ENSG00000096070|unk|FALSE|unique (ssRNA)
RNA: GGGAGUUCUACAGUCCGACGAUCGCUAGGGAAGGACAUGGUGUAUAUAAUUGUAAAAUACUGUUCUAAAUUAUUCAGGCCUAUAGUUUCCAUUACUGGAGUCCUCCAUUGUGUGGCCACACAGUGUCGUUGAUUUAAAGGAGCCAACAGAGGAUUGAGCAUCA
B6: ENSG00000168936:stop:overlap|stop_codon|ENSG00000168936|stop_codon|NA|stop_codon (ssRNA)
RNA: GGGAGUUCUACAGUCCGACGAUCGUGUGGCCAGCACCAACCCUGCUGUGCAGGCCUUUGACAUCUGGAGCUGGAGGCCUGCAUAGGCUGCAUGCAGACACGUGCCAGCGUGAAGCUGGUGAAGACCUGCCAGGAGGCAGCCACCAACAGAGGAUUGAGCAUCA
B7: chr12:120764159:120764260:-|3pUTR|ENSG00000157837|msi1|FALSE|unique (ssRNA)
RNA: GGGAGUUCUACAGUCCGACGAUCACACACACAUAGAUAUAUAUGAAUAAACAAAAAUGAAAUCCUGCUAAGAUCACGCUGUGUAGCUGACAGGGGCUUGCUGUCGUUUUGAGCAUGUCGAGCAGUUUACUGUGGCUUCCUUGUCAACAGAGGAUUGAGCAUCA
B8: chr3:73066602:73066703:+|3pUTR|ENSG00000163605|unk|FALSE|unique (ssRNA)
RNA: GGGAGUUCUACAGUCCGACGAUCACUAUUUUGUAGAAUGAAUGUUUAUGAAGCUGAUAUGAGACCAUCUCAGAAGAACCAAGUAGGUUCCUUGACCUUUUGCUUGCUUUUCUGAACAUUGUGAAUAUUACACAUGUCUUUCUACAACAGAGGAUUGAGCAUCA
B9: chr7:101137467:101137738:+|3pUTR|ENSG00000106366|msi1|total|mutant (ssRNA)
RNA: GGGAGUUCUACAGUCCGACGAUCGUUAAAAGAUGGUAAACCAGAUCUGUCUCCAAGACCUUGGCCUCUCCUUGGAGGACCUUCCGGUCAAACUCCCCCGUCUCCACCUGAGACCCUGGGAGAGAAGUUUGAAGCACAACUCCCCAACAGAGGAUUGAGCAUCA
B10: chr22:45344062:45344555:-|three_prime_utr|ENSG00000077935|control|control|control (ssRNA)
RNA: GGGAGUUCUACAGUCCGACGAUCUCCACAGGAGACUUCUGGAGCAAGCAGGACCAGCCUGGUGCACCCUUUAAGAGAAACCUUAGUCGUUCUAGCCAAAGAGGCUGUGGCUCACUUUAGUUGAGUGUUCAGACCUCAUUCUAGCAACAGAGGAUUGAGCAUCA
B11: chr1:162783069:162783171:+|3pUTR|ENSG00000162733|unk|FALSE|unique (ssRNA)
RNA: GGGAGUUCUACAGUCCGACGAUCUGAAAGUAGUUCAAAUUUGAAUUAGAAGAAUGAAGCUAGGACUUAUUUGGAAAAGGAGAUAGAAAAAAAAUGAUCAGAAACUGUGGGGCCUUAUUACCUUUGCAGUAAGUUAUCUUCUUCCAACAGAGGAUUGAGCAUCA
B12: ENSG00000100401:stop:overlap|stop_codon|ENSG00000100401|stop_codon|NA|stop_codon (ssRNA)
RNA: GGGAGUUCUACAGUCCGACGAUCGCGCCCUGGAAUCCUGCUCCUUCGCCCGCCACAGUCUGCUGCAGACGCUGUACAAGGUCUAGACUCAAAGCCUCUCCCAUCCCUUGGCCUGGACCAGUGAGCUGGGGAGGGACUCGGAUGCAACAGAGGAUUGAGCAUCA
B13: ENSG00000135709:stop:overlap|stop_codon|ENSG00000135709|stop_codon|NA|stop_codon (ssRNA)
RNA: GGGAGUUCUACAGUCCGACGAUCACCUGGAUGAAGAGCAAUACAAGCUGCUUAGUGACCACAUUGAGCAAAUGGCCACUGAGUAGGCCCCAGAGGUCGCACUCCGCAGGAGGACUGAGGCCAUGUGCCAUUCUCCCGGGCCCACAACAGAGGAUUGAGCAUCA
B14: chr6:122453778:122453910:-|CDS|ENSG00000111897|unk|total|mutant (ssRNA)
RNA: GGGAGUUCUACAGUCCGACGAUCCCUUUCAGUGUGGUUUUAUGCCGGCAUGGCAGGUGCCUUUUGUUUCAUCCUCAUACAACCCGUCUUACUUAUUGAUUUUGCACAUUCAUGGAAUGAAUCGUGGGUUGAAAAAAUGGAAGACAACAGAGGAUUGAGCAUCA

These binders were tested against T1, UNK ZnF1-6 (called full-length) (assay: nsRBNS (natural sequence RNA bind-n-seq); RBNS binding buffer (assumed for nsRBNS): 25 mM Tris pH 7.5, 150 mM KCl, 3 mM MgCl2, 0.01% Triton X-100, 500 ug/ml BSA, 20 U/ml SUPERase-In, 4 C; UNK is unkempt and MSI1 is Musashi-1; names of the RNAs are library labels; protein concentration not given here; high values mean tight binding).

Binder | binding signal [enrichment R]
B1 | 1.34
B2 | 0.625
B3 | 0.566
B4 | 0.663
B5 | 0.931
B6 | 1.06
B7 | 3.06
B8 | 0.351
B9 | 0.451
B10 | 2.17
B11 | 1.05
B12 | 0.703
B13 | 0.802
B14 | 0.381
